The supplement of paper PMC10441789
Some of the results follow. Antibody binding of pooled human sera (four to six donors per pool; dilution not stated) to peptides of the Trypanosoma cruzi antigen TSSA on microarrays. Quantile-normalised fluorescence in arbitrary units, mean of duplicate arrays; higher = more binding. No active / inactive call. The uninfected pools are read here as the healthy donors of the same country. The strongest signals lie near the top of the scale (about 60,000).

Assays:
Experiment in all cases: antibody binding signal (normalised fluorescence) (arbitrary fluorescence units); higher = stronger serum antibody binding to peptide
[1] = system: pooled sera of chronic Chagas disease patients, Argentina
Protocol: (§1)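 Microarray of 15-residue peptides over residues 30-55 of Trypanosoma cruzi TSSAII, each with 1 to 10 substitutions at naturally variable positions, probed with one serum pool per country.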

[2] = system: pooled sera of chronic Chagas disease patients, Bolivia
Protocol: as §1

[3] = system: pooled sera of chronic Chagas disease patients, Brazil
Protocol: as §1

[4] = system: pooled sera of chronic Chagas disease patients, Colombia
Protocol: as §1

[5] = system: pooled sera of chronic Chagas disease patients, Mexico
Protocol: as §1

[6] = system: pooled sera of chronic Chagas disease patients, USA
Protocol: as §1

[7] = system: pooled sera of uninfected people, Argentina
Protocol: as §1

[8] = system: pooled sera of uninfected people, Bolivia
Protocol: as §1

[9] = system: pooled sera of uninfected people, Brazil
Protocol: as §1

[10] = system: pooled sera of uninfected people, Colombia
Protocol: as §1

[11] = system: pooled sera of uninfected people, Mexico
Protocol: as §1

[12] = system: pooled sera of uninfected people, USA
Protocol: as §1

Sequence | antibody binding signal [1] | antibody binding signal [2] | antibody binding signal [3] | antibody binding signal [4] | antibody binding signal [5] | antibody binding signal [6] | antibody binding signal [7] | antibody binding signal [8] | antibody binding signal [9] | antibody binding signal [10] | antibody binding signal [11] | antibody binding signal [12]
TDNKAAAGGAPSPSG | 268 | 394 | 380 | 3270 | 264 | 498 | 397 | 301 | 277 | 292 | 187 | 256
TPPSGTDKKAATGGA | 12800 | 4510 | 30200 | 5700 | 19800 | 1960 | 568 | 597 | 169 | 570 | 1170 | 431
KDKKPAAGETPSPPG | 222 | 193 | 1160 | 125 | 145 | 595 | 112 | 152 | 112 | 75.8 | 79.2 | 223
ENKAATGGAPSQSGA | 603 | 1520 | 4500 | 868 | 592 | 3100 | 352 | 179 | 235 | 223 | 153 | 172
PSGTEKKPATGETPS | 36100 | 27900 | 31400 | 1800 | 2170 | 22800 | 737 | 600 | 1010 | 386 | 1990 | 463
GKDNKTAAGGTPSPP | 691 | 200 | 251 | 3360 | 639 | 1790 | 150 | 124 | 258 | 184 | 202 | 140
GTDNKAATGEAPSQS | 25400 | 38100 | 40600 | 183 | 240 | 28700 | 180 | 486 | 1370 | 161 | 136 | 110
ISTPPSGKDNKPAAG | 36100 | 2090 | 23600 | 259 | 37700 | 13200 | 542 | 894 | 144 | 186 | 346 | 282
SGKEKKPAAGETPSQ | 10200 | 801 | 8320 | 4110 | 11000 | 7400 | 261 | 264 | 99.8 | 266 | 91.3 | 300
EKKPAAGGTPSQSGA | 869 | 198 | 387 | 4940 | 347 | 1240 | 227 | 623 | 2610 | 159 | 154 | 832
SGTENKTATGETPSP | 17000 | 20100 | 20200 | 308 | 287 | 10500 | 499 | 347 | 164 | 248 | 249 | 777
SGKEKKTAAGETPSP | 3240 | 408 | 3010 | 2250 | 5640 | 5480 | 193 | 188 | 89.3 | 231 | 176 | 263
TDNKAATGGTPSQPG | 345 | 1030 | 6880 | 1590 | 477 | 343 | 468 | 278 | 431 | 293 | 1210 | 89.4
SSTPPSGKENKPAAG | 41700 | 7790 | 25800 | 440 | 14900 | 13800 | 3670 | 2000 | 214 | 672 | 275 | 735
EKKTAAGETPSPPGA | 346 | 297 | 336 | 511 | 380 | 4290 | 152 | 1240 | 141 | 540 | 281 | 1460
GKEKKAAAGEAPSQS | 2930 | 2440 | 914 | 3690 | 2990 | 8000 | 142 | 94.6 | 98.6 | 76 | 93.1 | 107
SGTDNKTAAGGAPSQ | 259 | 475 | 40100 | 6570 | 591 | 329 | 307 | 569 | 1850 | 250 | 228 | 219
GTENKTAAGGTPSPP | 32600 | 538 | 578 | 4490 | 843 | 1640 | 318 | 290 | 687 | 407 | 2010 | 153
PPSGKEKKPATGEAP | 43800 | 14000 | 42200 | 1810 | 5670 | 28100 | 1160 | 1110 | 170 | 472 | 151 | 331
GTEKKAATGGAPSQS | 1070 | 203 | 704 | 835 | 1700 | 1610 | 469 | 956 | 116 | 781 | 113 | 165
PSGKENKAAAGETPS | 15900 | 9520 | 14900 | 22100 | 21000 | 10700 | 6250 | 2480 | 261 | 742 | 523 | 233
PPSGTENKAATGGAP | 46400 | 36100 | 47900 | 464 | 3480 | 12300 | 2470 | 933 | 271 | 873 | 232 | 1100
KEKKTAAGGAPSPSG | 164 | 202 | 179 | 2660 | 288 | 281 | 114 | 107 | 125 | 144 | 107 | 152
GKDKKAAAGGTPSPP | 340 | 169 | 152 | 1950 | 518 | 1130 | 112 | 72.5 | 520 | 137 | 80.8 | 96.1
TDNKPAAGGAPSPSG | 1240 | 562 | 3560 | 1440 | 215 | 773 | 198 | 379 | 311 | 280 | 398 | 148

Sequence | antibody binding signal [1] | antibody binding signal [2] | antibody binding signal [3] | antibody binding signal [4] | antibody binding signal [5] | antibody binding signal [6] | antibody binding signal [7] | antibody binding signal [8] | antibody binding signal [9] | antibody binding signal [10] | antibody binding signal [11] | antibody binding signal [12]
DNKAATGGTPSPPGA | 406 | 1010 | 403 | 278 | 419 | 259 | 197 | 325 | 501 | 334 | 212 | 153
GTDKKTAAGEAPSQP | 3470 | 12700 | 34900 | 1300 | 561 | 7520 | 236 | 330 | 155 | 927 | 168 | 106
GTDKKPATGGAPSQP | 1480 | 1130 | 17700 | 6290 | 2570 | 1700 | 296 | 776 | 174 | 163 | 667 | 214
KDNKAAAGEAPSPSG | 287 | 194 | 9740 | 194 | 160 | 11200 | 376 | 1470 | 133 | 164 | 90.8 | 101
KDNKPAAGEAPSPSG | 567 | 1320 | 22900 | 507 | 241 | 15600 | 331 | 417 | 176 | 258 | 330 | 97.7
DNKPAAGEAPSPPGA | 843 | 1390 | 33000 | 293 | 139 | 17000 | 99 | 207 | 263 | 139 | 185 | 95.3
TPPSGKDKKTAAGEA | 1560 | 485 | 801 | 513 | 27100 | 803 | 209 | 296 | 134 | 189 | 103 | 177
GKENKTAAGGAPSQP | 928 | 320 | 4260 | 4530 | 2220 | 8240 | 328 | 99.5 | 127 | 124 | 141 | 136
STPPSGKEKKTAAGG | 13600 | 630 | 511 | 1780 | 29100 | 814 | 302 | 439 | 136 | 250 | 130 | 211
GTDKKAATGEAPSQP | 23400 | 22700 | 42200 | 2060 | 659 | 26300 | 414 | 227 | 203 | 603 | 269 | 176
TPPSGKDKKPATGGT | 15200 | 1250 | 5180 | 321 | 49500 | 769 | 207 | 270 | 357 | 276 | 117 | 158
GTDNKTATGGAPSPS | 448 | 297 | 25700 | 722 | 395 | 476 | 329 | 678 | 1970 | 204 | 294 | 169
PSGTDKKTATGEAPS | 13900 | 20000 | 14300 | 1760 | 780 | 20500 | 213 | 584 | 253 | 240 | 284 | 242
PSGTDNKTAAGEAPS | 15400 | 11600 | 41400 | 450 | 389 | 6950 | 150 | 663 | 876 | 342 | 125 | 191
TEKKTAAGGTPSQSG | 1310 | 326 | 332 | 14400 | 682 | 2600 | 309 | 148 | 1130 | 191 | 746 | 288
GTEKKTATGETPSQP | 1090 | 2070 | 30900 | 647 | 889 | 8190 | 261 | 645 | 434 | 112 | 288 | 152
SGTENKAATGGAPSP | 42300 | 17000 | 23700 | 669 | 870 | 6920 | 629 | 457 | 197 | 269 | 188 | 148
ENKAAAGEAPSPPGA | 1180 | 807 | 27300 | 253 | 158 | 13700 | 163 | 119 | 121 | 104 | 97.2 | 114
GKDNKAAAGETPSPS | 1410 | 271 | 2830 | 2050 | 2430 | 2840 | 199 | 351 | 108 | 205 | 152 | 1340
DNKTAAGEAPSPPGA | 366 | 360 | 4320 | 310 | 296 | 6780 | 125 | 278 | 235 | 223 | 212 | 151
GKENKPAAGGAPSQP | 6770 | 1320 | 20100 | 12700 | 16500 | 13400 | 614 | 124 | 129 | 119 | 139 | 124
PPSGTDKKTATGGTP | 8420 | 1660 | 16700 | 3660 | 23500 | 2410 | 338 | 252 | 239 | 511 | 450 | 188
PSGTENKTAAGGAPS | 50200 | 23000 | 44300 | 9040 | 5040 | 10500 | 1410 | 662 | 572 | 593 | 773 | 541
GKEKKAATGGTPSQP | 1750 | 246 | 377 | 1920 | 2650 | 2250 | 252 | 108 | 160 | 251 | 273 | 94.8
TPPSGKENKTATGGA | 25600 | 1140 | 3690 | 669 | 3880 | 2670 | 2720 | 1040 | 188 | 573 | 263 | 286
